Source: PubChem BioAssay AID686978 (National Center for Advancing Translational Sciences (NCATS), 2013)
Several values for one entry are separate records, joined by “and”; a condition that tells them apart may be missing. Equal values may be shown once. Hit rate of the full screen: of about 420,000 compounds, about 64,000 (15%) were called active. This list was built around the results that the source calls inconclusive (neither active nor inactive); the mix of calls is not that of the screen. The call rests on the fitted dose curve; in most records, active means well fitted inhibition curve with a large enough effect; inconclusive means small, poorly fitted or top-dose-only effect; inactive means flat fitted curve, though single readings scatter. Potencies beside an inconclusive call are fits to weak or partial responses and may not hold up.

Assay: qHTS for Inhibitors of human tyrosyl-DNA phosphodiesterase 1 (TDP1): qHTS in cells in absence of CPT; further: nearly all actives have a fitted effect of over 55% in size
Details: DT40 Tdp1-/- hTDP1 cells, no CPT, ATP luminescence, 48 h; activity change, negative = growth inhibition: at 46.2 µM (top of the series)
Outline: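 Cells were dispensed at 400 per well, compounds added by pin tool, plates incubated ≥48 hr at 37 °C, then CellTiter-Glo added for 30 min at room temperature before luminescence reading. Line: DT40 Tdp1-/- complemented with hTDP1; camptothecin omitted.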
On the % scale 0 is the no-effect control and ±100 the full control effect; potency means the concentration at half of the fitted maximal effect; tags describe the fitted curve by direction and shape.

Row | SMILES | Potency | activity change, negative = growth inhibition
1 | CCOC(=O)c1c(C)[nH]c(C(=O)COC(=O)COc2ccccc2C=O)c1C | inconclusive: 25.9 µM [inhibitor, single point] | 
2 | CCn1c2ccccc2c2cc(NC(=O)N3CCOCC3)ccc21 | inconclusive: 11.6 µM [inhibitor, partial curve, poor fit] | 
3 | CCOc1ccc(C(=O)c2cn(CC(=O)Nc3ccc(F)cc3)c3cc4c(cc3c2=O)OCO4)cc1 | inconclusive: 10.3 µM [inhibitor, partial curve] | 
4 | CCOc1ccccc1CNC(=O)CCCn1ncn2c(cc3occc32)c1=O | inactive and inconclusive: 29.1 µM [inhibitor, single point] | 
5 | N#C/C(=C\c1ccc(O)c(Br)c1)C(=O)NCc1ccccc1 |  | inactive: -18%
6 | Cc1ccn2cc(CCNS(=O)(=O)c3ccc(F)c(C(F)(F)F)c3)nc2c1 | inconclusive: 29.1 µM [inhibitor, single point] | 
7 | Cc1nn(CC(=O)Nc2ccccc2C(F)(F)F)c(=O)c2cccn12 | inactive | 
8 | CC(C)CN1CC[C@@]2(CCCN(S(=O)(=O)c3ccccc3)C2)C1 |  | inactive: -21.6%
9 | O=C(NCCc1ccccc1)C1CCN(S(=O)(=O)c2ccc(-n3cnnn3)cc2)CC1 | inconclusive: 29.1 µM [inhibitor, single point] | 
10 | CCN(CC(=O)Nc1ccc2c(c1)OCCO2)C(=O)c1cc(=O)[nH]c2ccccc12 |  | inactive: -18.9%
11 | CCOC(=O)c1cnc2c(-c3ccc(F)cc3)cnn2c1C(F)(F)F | inconclusive: 25.9 µM [inhibitor, single point] | 
12 | O=C1OCC2=C1C(c1ccc(Cl)cc1)c1cc3c(cc1O2)OCO3 (stereo not drawn) | active: 16.4 µM | 
13 | O=C(Nc1nnc(Cc2ccc(Cl)cc2)s1)c1cccnc1 | inconclusive: 29.1 µM [inhibitor, single point] | 
14 | CCOC(=O)C1(Cc2ccc(OC)cc2)CCN(C(=O)c2cc(C)on2)CC1 | inconclusive: 29.1 µM [inhibitor, single point] | 
15 | Cc1ccc(CCNC(=O)CCn2nc(-c3ccccc3)ccc2=O)cc1 |  | inactive: -45.6%
16 | Cc1ccc(OCc2cc(C(=O)NCC3COCCO3)no2)cc1C (stereo not drawn) | inconclusive: 29.1 µM [inhibitor, single point] | 
17 | COC(=O)C1=C(C)Nc2nc(-c3ccccc3)nn2C1c1ccc(C)o1 (stereo not drawn) | inconclusive: 18.4 µM [inhibitor, single point] | 
18 | N#CC(C#N)=C(N)/C(C#N)=C/c1cc(O)c(O)c(O)c1 | inactive and inconclusive: 29.1 µM [inhibitor, single point] | 
19 | Cc1ccc(S(=O)(=O)Nc2ccc(NC(=O)c3cccnc3)cc2)cc1 |  | inactive: -11.3%
20 | Cc1ccc(N2C(=O)CSC2c2ccc3c(c2)OCO3)cc1 (stereo not drawn) |  | inconclusive: -32% [inhibitor]
21 | Cc1cc(=O)[nH]c(N/N=C/c2ccc(OC(=O)c3cccnc3)cc2)n1 |  | inactive: -9.88%
22 | Cc1ccc(NC2(C#N)CCCC2)cc1 |  | inactive: 7.01%
23 | Cc1cccc(OCCSc2nc(N)cc(N)n2)c1 | active: 20.6 µM | 
24 | CCCCN(CC)CCNC(=O)CN1C(=O)COc2ccc(S(=O)(=O)N3CCCC3)cc21 | inactive | 
25 | CN(C)/C=C(\C(=O)c1ccc(F)cc1F)c1nnnn1-c1ccccc1 |  | inactive: -7.64%

Row | SMILES | Potency | activity change, negative = growth inhibition
26 | CCN1C(=O)[C@H]2[C@H]3CN=C(SCc4ccc(C#N)cc4)N3[C@@](Cc3ccccc3)(C(=O)OC)[C@H]2C1=O | inconclusive: 29.1 µM [inhibitor, single point] | 
27 | CNC(=O)c1c(NC(=O)c2cc(-c3cc(C)c(C)cc3O)n[nH]2)sc2c1CCCC2 | inconclusive: 29.1 µM [inhibitor, single point] | 
28 | COCC(=O)N1CCC2(CC1)CCN(C(=O)NC(C)C)CC2 |  | inactive: -7.12%
29 | Cc1ncc2c(c1CNC(=O)c1cncs1)CCN(C(=O)c1ccc(C(F)(F)F)cc1)C2 |  | inactive: -14.4%
30 | Cc1ccc(C(=O)Nc2ccc(N3CCN(C)CC3)nc2)cc1 |  | inactive: 0.777%
31 | COc1ccc(NC(=O)c2ccc3nc(CCc4ccccc4)oc3c2)c(OC)c1 | inconclusive: 2.06 µM [inhibitor, single point] | 
32 | Cc1ccc(Nc2nc(N)nc(N)c2N=O)cc1C | inconclusive: 2.31 µM [inhibitor, full curve] | 
33 | COc1ccc(N2CCN(C(=O)COC(=O)CNC(=O)c3ccccc3)CC2)cc1 |  | inactive: -12.2%
34 | Cc1ccccc1NC(=O)N1CCc2c(sc3c2CCCC3)C1c1ccccc1 (stereo not drawn) | inconclusive: 25.9 µM [inhibitor, single point] | 
35 | COc1cccc(C(=O)Nc2ccc(N3CCN(Cc4ccccc4)CC3)cc2)c1 | inconclusive: 18.4 µM [inhibitor, partial curve] | 
36 | CC(C)(C)c1cc(CP(=O)(c2ccccc2)c2ccccc2)cc(C(C)(C)C)c1O | inconclusive: 29.1 µM [inhibitor, single point] | 
37 | O=C(CCNC(=O)c1ccccc1Cl)Nc1cccc(S(=O)(=O)N2CCCCC2)c1 | inconclusive: 25.9 µM [inhibitor, single point] | 
38 | C=CCn1c(CSc2nc3ccccc3s2)n[nH]c1=S |  | inactive: -3.1%
39 | COc1ccccc1C1c2[nH]c3ccccc3c2CCN1Cc1cnc(C)s1 (stereo not drawn) | active: 18.4 µM | 
40 | CCCCc1nc2cc(C(=O)N3CCCCC3CCNC(C)=O)ccc2o1 (stereo not drawn) | inconclusive: 20.6 µM [inhibitor, single point] | 
41 | Cc1cccc(Oc2c(C=O)c3ccccc3n2C)c1 | inconclusive: 18.4 µM [inhibitor, single point] | 
42 | COc1cc(/C=N/Nc2ccc(F)cc2F)cc(OC)c1O | active: 5.8 µM | 
43 | FC(F)OC(Cl)C(F)(F)F (stereo not drawn) |  | inactive: -4.12%
44 | CCOC(=O)N1CCN(C(=O)Cn2ccc3c(OC)cccc3c2=O)CC1 | inconclusive: 29.1 µM [inhibitor, single point] | 
45 | O=C(NC1CCCCCC1)c1ccc(Br)o1 |  | inactive: -2.05%
46 | O=c1oc(-c2ccc([N+](=O)[O-])cc2)nc2ccc(O)cc12 |  | inactive: -16%
47 | CCCN1CCN(c2ncnc3c2nnn3Cc2ccccc2)CC1 | active: 20.6 µM | 
48 | CC(C)C(c1nnnn1Cc1ccco1)N1CCN(c2nc3ccccc3s2)CC1 (stereo not drawn) | inconclusive: 29.1 µM [inhibitor, single point] | 
49 | COc1ccc(CCNC(=O)CCCCn2c(=O)c3ccccc3n(Cc3ccccc3C)c2=O)cc1OC | inconclusive: 16.4 µM [inhibitor, single point] | 
50 | COc1cc(C(CC(=O)Nc2ccc(F)cc2F)N2Cc3ccccc3C2=O)cc(OC)c1OC (stereo not drawn) | inconclusive: 16.4 µM [inhibitor, partial curve, poor fit] | 

Row | SMILES | Potency | activity change, negative = growth inhibition
51 | Cc1ccc2cc(C#N)c(NCCNC(=S)NCCCN3CCOCC3)nc2c1 | inconclusive: 29.1 µM [inhibitor, single point] | 
52 | CC(C)CN1CCC(C(=O)NC(c2ccc(F)cc2)c2ccc3ccccc3n2)CC1 (stereo not drawn) | active: 23.1 µM | 
53 | COC(=O)C1=C(C)N(c2ccc(C(=O)OC)cc2)C(=O)C1 | inconclusive: 29.1 µM [inhibitor, single point] | 
54 | CCS(=O)(=O)c1ncc(N(Cc2ccccc2)Cc2ccco2)c(C(=O)Nc2ccc(C)c(C)c2)n1 | active: 11.6 µM | 
55 | CCN(CC(=O)N1CCN(Cc2ccccc2)CC1)S(=O)(=O)c1ccccc1 | inconclusive: 29.1 µM [inhibitor, single point] | 
56 | CCOC(=O)C1=C(Nc2ccc(Cl)cc2)OCC1=O |  | inactive: -26.5%
57 | CN(C)CC(C)(C)CNC(=O)c1cc(Br)cc(Br)c1O |  | inactive: 1.87%
58 | CCn1c(NCc2ccc(OC)cc2)nc2ccccc21 | inactive and inconclusive: 29.1 µM [inhibitor, single point] | 
59 | COc1cc(Cl)c(CNC[C@H]2O[C@@H](n3cnc4c(N)ncnc43)[C@H](O)[C@@H]2O)c(Cl)c1O |  | inactive: -24.1%
60 | Cc1[nH]c2ccc(F)cc2c1CCN(Cc1cccnc1)C(=S)Nc1cccc(F)c1 |  | inactive: -53.8%
61 | COc1ccc(OC)c(NC(=O)c2cc3cc(C)ccc3n2C)c1 | inconclusive: 29.1 µM [inhibitor, single point] | 
62 | CC(=O)N/N=C(/c1ccccc1)C(O)c1ccccc1 (stereo not drawn) |  | inactive: 8.93%
63 | CCCCn1c(-c2cccc(F)c2)nc2c1c(=O)[nH]c(=O)n2CC(C)C | inconclusive: 14.6 µM [inhibitor, partial curve] | 
64 | COc1cccc(C(=O)N2CCN(C3CCC(c4ccccc4)CC3)CC2)c1OC (stereo not drawn) | inconclusive: 9.2 µM [inhibitor, partial curve] | 
65 | CCC(=O)Nc1ccc(CC)cc1-c1nc2ccccc2n(CC(=O)Nc2cccc(Cl)c2)c1=O | inconclusive: 20.6 µM [inhibitor, single point] | 
66 | COC(=O)c1c([N+](=O)[O-])c(OC)c(OC)c(OC)c1[N+](=O)[O-] |  | inactive: 4.27%
67 | Cc1ccc(-c2cc(C(F)F)n3ncc(C(=O)Nc4cn(C)nc4C)c3n2)cc1 | inconclusive: 2.31 µM [inhibitor, partial curve] | 
68 | CC(OC(=O)c1ccc(F)cc1)C(=O)Nc1nc(-c2cccc([N+](=O)[O-])c2)cs1 (stereo not drawn) | inconclusive: 20.6 µM [inhibitor, single point] | 
69 | CCCC(=O)OCC(=O)NC1CCCc2ccccc21 (stereo not drawn) |  | inactive: 0.243%
70 | C=CCn1c(-c2ccccc2)n[nH]c1=S | inconclusive: 29.1 µM [inhibitor, single point] | 
71 | CC1CN(CC(=O)Nc2cccc(C(=O)Nc3cccc(C(F)(F)F)c3)c2)CC(C)O1 (stereo not drawn) | active: 23.1 µM | 
72 | Cc1ccc2[nH]c3c(c2c1)SC(C)(C)CC3=O | inconclusive: 11.6 µM [inhibitor, single point] | 
73 | O=C(CNCc1ccccc1)Nc1ccc(Cl)cc1 | inconclusive: 9.2 µM [inhibitor, partial curve] | 
